Experimental data from the RNAGym collection of RNA variant scans (doi:10.1073/pnas.2313332121).
This sample is rich in variants without activity.

B1: TPR 5TU (parent)
chain: GGAUCUUCUCGAUCUAACAAAAAAGACAAAUCUGCCACAAAGCUUGAGAGCAUCUUCGGAUGCAGAGGCGGCAGCCUUCGGUGGCGCGAUAGCGCCAACGUUCUCAACUAUGACACGCAAAACGCGUGCUCCGUUGAAUGGAGUUUAUCAUG

Variants of: B1
Test: polymerase ribozyme fitness, log enrichment relative to wild type (log ratio); higher = more active; in vitro selection for triplet polymerase activity
Procedure, shortened: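 After PCR construction and transcription, each subunit's mutant library from a heterodimeric triplet polymerase ribozyme was annealed with a biotinylated primer, the partner subunit and triplets. Incubation was frozen, at −7 °C, and extended constructs were gel-excised, bound to streptavidin beads and amplified by RT-PCR, in one selection round done in triplicate. Fitness is the logarithm of a genotype's enrichment divided by that of the wild type, from inverse-variance-weighted replicate averages of Illumina-sequenced inputs and outputs. The base of the logarithm is 2, and genotypes needed ≥10 input reads and ≥1 read per output.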

Variant | polymerase ribozyme fitness (log ratio)
GGAUCUUCUCGAUCUAACAAAAAAGACAAAUCUGCCACAAAGCUUGAGCGCAUCUUUGGAUGCAGAGGCGGCAGCCUUCGAUGUCGCGAUAGCGCCAAAUUUCUCAACUAUGACACGCAAAACGCGUGCUCCGUUGACUGGAGUUUAUCAUG | ≤ -4.2
GGAUCUUCUCGAUCUAACAAAAAAGACAAAUCUGCCACAAAGCUUGAGCGCAUCUUCGGAUGCAGCGGCGGCAGCCUUCGCUUGCGCGAUAGCGCCAAUGGUCUCAAUUAUGACACGCAAAACGCGUGCUCCGUUGAAUGGAGUUUAUCAUG | ≤ -4.2
GGAUCUUCUCGAUCUAACAAAAAAGACAAAUCUGCCACAAAGCUUGAUAGCAUCUUCGGAUGCAGAGGCGGCAGCCUUCGGUAGCGCGAUAACGCCAACGUUCUCAACUAUGACACGCAAAACGCGUGCUCCGUUGAAUGGAGUUUAUCAUG | ≤ -4.2
GGAUCUUCUCGAUCUAACAAAAAAGACAAAUCUGCCACAAAGCUUGAUAGCAUCUUCGGAUGCAGAGGCGGCAGCCUUCGGUGGCGCGAUAGCGCCAACGUUCUCAACUAUGACACGCAAAACGCGUGCUCCGUUGAAAGGAGUUUAUCAUG | ≤ -4.2
GGAUCUUCUCGAUCUAACAAAAAAGACAAAUCUGCCACAAAGCUUGAGCGAAUCUUCGGAUGCAGAGGCGGAAGCCUUCGGUGGCGCGAUAGCGCCAACGUUCUCAACUAUGACACGCAAAACGCGUGCUCCGUUGAAUGGAGUUUAUCAUG | ≤ -4.2
GGAUCUUCUCGAUCUAACAAAAAAGACAAAUCUGCCACAAAGCUUGAUAGCAUCAUCGGAUGCAGAGGCGGCAGCCUUCGGUGGCGCGAUAGCGCGAACGUUCUCAACUAUGACUCGCAAAACGCGUGCUCCGUUGAAUGGAGUUUAUCAUG | -4.16
GGAUCUUCUCGAUCUAACAAAAAAGACAAAUCUGCCACAAAGCUUGAUAGCAUCAUCGGAUGCAGAGGCGGCAGCCUUCGGUGGCGCGAUAGCGCCAAUGUUCUCAACUAUGACACGCAAAACGCGUGCUCCGUUGAAUGGAGUUUAUCAUG | -2.23
GGAUCUUCUCGAUCUAACAAAAAAGACAAAUCUGCCACAAAGCUUGAUAGCAUCUUCGCAUGCAGAGGCGGCAGCCUUCGAUGGCGCGAUAGCGCCUACGUUCUCAACUAUGACACGCAAAACGCGUGCUCCGUUGAAUGGAGUUUAUCAUG | -1.88
GGAUCUUCUCGAUCUAACAAAAAAGACAAAUCUGCCACAAAGCUUGAGCGAAUCUUCGGAUGCAGAGGCGGCAGCCUUCGGUGGCCCGAUAGCGCCAAUGUUCUCAACUAUGACACGCAAAACGCGUGCUCCGUUGAAUGGAGUUUAUGAUG | ≤ -4.2
GGAUCUUCUCGAUCUAACAAAAAAGACAAAUCUGCCACAAAGCUUGAGCGCAUCUUCGGCUGCAGAGGCGGCAGCCUUCGGUCGCGCGAUAGCGCCAACGUUCUCAACUAUGACACGCAAAACGCGUGGUCCGUUGAAUGGAGUUUAUCAUG | ≤ -4.2
GGAUCUUCUCGAUCUAACAAAAAAGACAAAUCUGCCACAAAGCUUGAUAGCAUCUUCGGAUGCAGAGGCGGCAGCCUUCGGUGGCGCGAUAGCGCCAACGUUCUCAACUAUGACAUGCAAAACGCGUGCUCCGUUGAAUGGAGUUUAUCAUG | -0.65
GGAUCUUCUCGAUCUAACAAAAAAGACAAAUCUGCCACAAAGCUUGAGCGCAUUUUCGGAUGCAGAGGCGGCAGCCUUCCGUGGCGCGAUAGCGCCAACGUUCUCAACUAUGACACGCAAAACGCGUGCUGCGUUGAAUGGAGUUUAUCAUG | ≤ -4.2
GGAUCUUCUCGAUCUAACAAAAAAGACAAAUCUGCCACAAAGCUUGAUAGCAUCUUCGGAUGCAGAGGCGGGAGCCUUUGGUGGCGCGAUUGCGCCAACGUUCUUAACUAUGACACGCAAAACGCGUGCUACGUUGAAUGGAGUUUAACAUG | ≤ -4.2
GGAUCUUCUCGAUCUAACAAAAAAGACAAAUCUGCCACAAAGCUUGAGCGCAUAUUCGGAUGCCGAGGCGGCAGCCUUCGGUGGCGAGAUAGCGCCAACGUUCUCAACUAUGACACGCAAAACGCGUGCUCCGUUGAAUGGAGUUUAUCAUG | ≤ -4.2
GGAUCUUCUCGAUCUAACAAAAAAGACAAAUCUGCCACAAAGCUUGAUAGCAUCUUCGGAUGCAGAGGCGGCAGCCUUCGGUGGCGCGAUAGCGCUAACGUUCUCAACUAUGACACGCAAAACGCGUACUCCGUUGAAUGGAGUUUAUCAUG | ≤ -4.2
GGAUCUUCUCGAUCUAACAAAAAAGACAAAUCUGCCACAAAGCUUGAGCGCAUCUUCGGAUGCAGAGGGGGCAGCCUUCGGUGGAGCGAUAGCGCCAACGUUCUCAACUAUGACACGCACAACGUGUGCUCCGUUGAAUGGAGUUUAUCAUG | ≤ -4.2
GGAUCUUCUCGAUCUAACAAAAAAGACAAAUCUGCCACAAAGCUUGAUAGCAUCUUCGGAUGCAGAGGCGGCGGCCUUCGGUGGCGCGAUAGCGCCAACGUUCUCAACUAUGACACGCAAACCGCGUGCUCCGUUGAAUGGAGUUCAUCAUG | -0.965
GGAUCUUCUCGAUCUAACAAAAAAGACAAAUCUGCCACAAAGCUUGAGCGCAUCUUAGGAUGCAGAGGCGGCAGCCUUCGGUGGCGCGAUAGCGCCAAUGUUCUCAACUAUGACACGCAAAACGCGUGCUCCGUUGAAUGGAGUUUAUCAUG | ≤ -4.2
GGAUCUUCUCGAUCUAACAAAAAAGACAAAUCUGCCACAAAGCUUGAGCGUAUCUUCGGAUGCAGAGGCGGCAGCCUUCGAUGGCGCGAUAGCCCCAAUGUUUUCAACUAUGACACGCAAAACGCGUGCUCCGUUGAAUGGAUUUUAUCAUG | ≤ -4.2
